Patent publication US6780414B2 (priority 1998, dated 2004)

System: S. flexneri-induced PMN transepithelial migration
Test: PMN transepithelial migration assay across T84 cell monolayers
Conditions: basolateral surface pretreated with 300 μM cadaverine, 30 min, before infection (FIG. 4)

SMILES: NCCCCCN [cadaverine, 1,5-diaminopentane]
- ability of S. flexneri to induce PMN transepithelial migration: substantial decrease
